# According to the supplement of paper PMC8285479:
# Counter-ions that a name gives are not always drawn. ± gives the standard deviation of the averaged measurements. Over roughly 1,900 compounds, “normalised cell viability (NPI; 0 = phenylarsine oxide control, 1 = DMSO control)” has its median near 1; the lowest 2% begin near 0.039. Some of the results follow.
# Tested on: NCI-H1944
# Experiment: normalised cell viability (NPI; 0 = phenylarsine oxide control, 1 = DMSO control) (fraction of DMSO control); NCI-H1944 is a non-small cell lung cancer line; higher = more viable cells (less compound toxicity)
# Conditions: 6 days
# [1] = glucocorticoid arm: hydrocortisone 2.75 uM co-treatment, compound 1 µM
# [2] = glucocorticoid arm: hydrocortisone 2.75 uM co-treatment, compound 5 µM
# [3] = glucocorticoid arm: hydrocortisone 2.75 uM pre-treated 2 days and continued, compound 1 µM
# [4] = glucocorticoid arm: hydrocortisone 2.75 uM pre-treated 2 days and continued, compound 5 µM
# [5] = glucocorticoid arm: vehicle, compound 1 µM
# [6] = glucocorticoid arm: vehicle, compound 5 µM
# 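Also: CTB read-out in 384-well plates, mean of triplicate wells, normalised per plate against 1 µM phenylarsine oxide and 0.1% DMSO, compounds added 24 h after seeding.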
structure (smiles),measurement,setting,value
NC(CP(=O)(O)O)C(=O)O (racemic) [(±)-2-Amino-3-phosphonopropionic acid],normalised cell viability,[1],0.993 ± 0.0066
same,normalised cell viability,[2],0.9903 ± 0.0093
same,normalised cell viability,[3],1.005 ± 0.0087
same,normalised cell viability,[4],1 ± 0.013
same,normalised cell viability,[5],0.9877 ± 0.0049
same,normalised cell viability,[6],0.998 ± 0.013
"NC1CCc2cc(O)c(O)cc2C1 (centres undefined) [6,7-ADTN hydrobromide]",normalised cell viability,[1],1.001 ± 0.009
same,normalised cell viability,[2],1.01 ± 0.011
same,normalised cell viability,[3],0.992 ± 0.022
same,normalised cell viability,[4],1.002 ± 0.0068
same,normalised cell viability,[5],0.98433 ± 0.00058
same,normalised cell viability,[6],0.9887 ± 0.0059
N[C@@H]1C[C@H]1c1ccccc1.N[C@H]1C[C@@H]1c1ccccc1 [Tranylcypromine hemisulfate],normalised cell viability,[1],1 ± 0.026
same,normalised cell viability,[2],0.998 ± 0.019
same,normalised cell viability,[3],1.003 ± 0.01
same,normalised cell viability,[4],1.01 ± 0.024
same,normalised cell viability,[5],1.005 ± 0.0057
same,normalised cell viability,[6],1 ± 0.012
O=C(CCCN1CCC2(CC1)C(=O)NCN2c1ccccc1)c1ccc(F)cc1 [Spiperone],normalised cell viability,[1],0.9873 ± 0.004
same,normalised cell viability,[2],0.99367 ± 0.00058
same,normalised cell viability,[3],0.892 ± 0.17
same,normalised cell viability,[4],1 ± 0.023
same,normalised cell viability,[5],0.9803 ± 0.0032
same,normalised cell viability,[6],0.981 ± 0.001
COC[C@H]1OC(=O)c2coc3c2[C@@]1(C)C1=C(C3=O)C2CCC(=O)[C@@]2(C)C[C@H]1OC(C)=O (some centres undefined) [Wortmannin from Penicillium funiculosum],normalised cell viability,[1],0.916 ± 0.025
same,normalised cell viability,[2],0.279 ± 0.019
same,normalised cell viability,[3],0.978 ± 0.012
same,normalised cell viability,[4],0.843 ± 0.012
same,normalised cell viability,[5],1.043 ± 0.0058
same,normalised cell viability,[6],0.0755 ± 0.0093
CC(C)Oc1cccnc1N(C)C1CCN(Cc2ccccc2)CC1,normalised cell viability,[1],0.993 ± 0.016
same,normalised cell viability,[2],0.954 ± 0.026
same,normalised cell viability,[3],1.01 ± 0.024
same,normalised cell viability,[4],0.998 ± 0.023
same,normalised cell viability,[5],1.01 ± 0.011
same,normalised cell viability,[6],1.01
NCC1(CC(=O)O)CCCCC1 [Gabapentin],normalised cell viability,[1],0.9963 ± 0.0063
same,normalised cell viability,[2],0.971 ± 0.021
same,normalised cell viability,[3],0.998 ± 0.013
same,normalised cell viability,[4],0.976 ± 0.021
same,normalised cell viability,[5],0.9867 ± 0.0025
same,normalised cell viability,[6],0.9807 ± 0.0055
CCN1CCN(C(=O)Cc2ccc(Nc3ncc(F)c(Nc4ccc(C(=O)Nc5ccccc5Cl)cc4)n3)cc2)CC1 [Aurora A Inhibitor I],normalised cell viability,[1],0.901 ± 0.019
same,normalised cell viability,[2],0.966 ± 0.019
same,normalised cell viability,[3],0.875 ± 0.055
same,normalised cell viability,[4],0.939 ± 0.027
same,normalised cell viability,[5],0.87 ± 0.03
same,normalised cell viability,[6],0.991 ± 0.013
CCCn1c(=O)c2[nH]c(C3CCCC3)nc2n(CCCOC(=O)c2ccc(S(=O)(=O)F)cc2)c1=O,normalised cell viability,[1],0.992 ± 0.011
same,normalised cell viability,[2],0.992 ± 0.033
same,normalised cell viability,[3],0.984 ± 0.011
same,normalised cell viability,[4],0.962 ± 0.011
same,normalised cell viability,[5],0.9787 ± 0.0075
same,normalised cell viability,[6],0.985 ± 0.0089
CCOC(=O)c1cncn1[C@H](C)c1ccccc1 [Etomidate],normalised cell viability,[1],0.9933 ± 0.006
same,normalised cell viability,[2],1.02 ± 0.01
same,normalised cell viability,[3],1.002 ± 0.0072
same,normalised cell viability,[4],1.02 ± 0.021
same,normalised cell viability,[5],1.002 ± 0.0076
same,normalised cell viability,[6],0.9977 ± 0.004
CCC1(c2ccc(N)cc2)CCC(=O)NC1=O (racemic) [(±)-p-Aminoglutethimide],normalised cell viability,[1],0.997 ± 0.0052
same,normalised cell viability,[2],1.01
same,normalised cell viability,[3],0.866 ± 0.23
same,normalised cell viability,[4],1 ± 0.027
same,normalised cell viability,[5],1.006 ± 0.0063
same,normalised cell viability,[6],1
CCCCCCC(C)(C)c1ccc([C@@H]2C[C@H](O)CC[C@H]2CCCO)c(O)c1,normalised cell viability,[1],1.01
same,normalised cell viability,[2],1.023 ± 0.0058
same,normalised cell viability,[3],0.992 ± 0.0035
same,normalised cell viability,[4],1.015 ± 0.0071
same,normalised cell viability,[5],0.984 ± 0.012
same,normalised cell viability,[6],1.004 ± 0.0098
"CN1[C@@H]2CC[C@H]1C[C@@H](OC(=O)c1cc(Cl)cc(Cl)c1)C2 [3-Tropanyl-3,5-dichlorobenzoate]",normalised cell viability,[1],0.9737 ± 0.0057
same,normalised cell viability,[2],0.962 ± 0.024
same,normalised cell viability,[3],1.01 ± 0.025
same,normalised cell viability,[4],1.02 ± 0.015
same,normalised cell viability,[5],0.9827 ± 0.0051
same,normalised cell viability,[6],0.9933 ± 0.0083
"O=[N+]([O-])c1ccc(O[C@@H]2O[C@H](CO)[C@@H](O)[C@H](O)[C@H]2F)c([N+](=O)[O-])c1 [2,4-Dinitrophenyl 2-fluoro-2-deoxy-beta-D-glucopyranoside]",normalised cell viability,[1],0.9917 ± 0.004
same,normalised cell viability,[2],0.989 ± 0.02
same,normalised cell viability,[3],0.991 ± 0.023
same,normalised cell viability,[4],0.974 ± 0.03
same,normalised cell viability,[5],0.9807 ± 0.0021
same,normalised cell viability,[6],0.9817 ± 0.0064
O=C(O)c1nn(Cc2ccc(Cl)cc2Cl)c2ccccc12 [Lonidamine],normalised cell viability,[1],1.006 ± 0.0075
same,normalised cell viability,[2],0.997 ± 0.012
same,normalised cell viability,[3],1.01 ± 0.013
same,normalised cell viability,[4],0.997 ± 0.011
same,normalised cell viability,[5],0.9953 ± 0.0032
same,normalised cell viability,[6],1 ± 0.015
CC(C)(C)c1cc(C=C(C#N)C#N)cc(C(C)(C)C)c1O [Tyrphostin A9],normalised cell viability,[1],0.978 ± 0.018
same,normalised cell viability,[2],0.444 ± 0.018
same,normalised cell viability,[3],1.02 ± 0.02
same,normalised cell viability,[4],0.864 ± 0.039
same,normalised cell viability,[5],1.02 ± 0.011
same,normalised cell viability,[6],0.16 ± 0.025
CC(C)(C)c1cc(C=C(C#N)C#N)cc(C(C)(C)C)c1O [Tyrphostin 9],normalised cell viability,[1],1 ± 0.021
same,normalised cell viability,[2],0.725 ± 0.028
same,normalised cell viability,[3],0.9987 ± 0.0011
same,normalised cell viability,[4],1.05 ± 0.031
same,normalised cell viability,[5],1.007 ± 0.0058
same,normalised cell viability,[6],0.402 ± 0.13
CCC1(C2=NCCN2)Cc2ccccc2O1 (centres undefined) [Efaroxan hydrochloride],normalised cell viability,[1],1.017 ± 0.0058
same,normalised cell viability,[2],1.02 ± 0.017
same,normalised cell viability,[3],1.02 ± 0.011
same,normalised cell viability,[4],1.03 ± 0.011
same,normalised cell viability,[5],1.023 ± 0.0058
same,normalised cell viability,[6],1.017 ± 0.0058
CC[C@@H](CO)NC(=O)[C@@H]1C=C2c3cccc4[nH]cc(c34)C[C@H]2N(C)C1 [Methylergonovine maleate],normalised cell viability,[1],1.01 ± 0.01
same,normalised cell viability,[2],1.03 ± 0.035
same,normalised cell viability,[3],1.01 ± 0.012
same,normalised cell viability,[4],1.05 ± 0.067
same,normalised cell viability,[5],1
same,normalised cell viability,[6],1.02 ± 0.015
NC(N)=Nc1ccc2[nH]c3c(c2c1)C[C@@]1(O)[C@H]2Cc4ccc(O)c5c4[C@@]1(CCN2CC1CC1)[C@H]3O5 [5'-Guanidinonaltrindole di(trifluoroacetate)],normalised cell viability,[1],1.017 ± 0.0058
same,normalised cell viability,[2],1.01 ± 0.011
same,normalised cell viability,[3],1.02 ± 0.011
same,normalised cell viability,[4],1.03 ± 0.015
same,normalised cell viability,[5],1.013 ± 0.0058
same,normalised cell viability,[6],1.017 ± 0.0058
CCOC(=O)c1ncn2c1[C@@H]1CCCN1C(=O)c1cc(OC)ccc1-2,normalised cell viability,[1],1.006 ± 0.0069
same,normalised cell viability,[2],0.989 ± 0.038
same,normalised cell viability,[3],1.006 ± 0.0075
same,normalised cell viability,[4],1.01 ± 0.011
same,normalised cell viability,[5],0.988 ± 0.0027
same,normalised cell viability,[6],0.999 ± 0.01
Cc1o[nH]c(=O)c1CC(N)C(=O)O (racemic) [(±)-AMPA hydrobromide],normalised cell viability,[1],0.995 ± 0.016
same,normalised cell viability,[2],0.983 ± 0.016
same,normalised cell viability,[3],0.999 ± 0.0095
same,normalised cell viability,[4],0.994 ± 0.025
same,normalised cell viability,[5],0.982 ± 0.0027
same,normalised cell viability,[6],0.98 ± 0.007
COc1ccc2c(c1O)-c1cccc3c1[C@@H](C2)N(C)CC3 [R(-)-Apocodeine hydrochloride],normalised cell viability,[1],0.9967 ± 0.0058
same,normalised cell viability,[2],1.007 ± 0.0058
same,normalised cell viability,[3],0.996 ± 0.012
same,normalised cell viability,[4],1.01 ± 0.015
same,normalised cell viability,[5],0.9657 ± 0.0042
same,normalised cell viability,[6],0.976 ± 0.0036
"C[N+]1(C)CCc2cc3c(cc2[C@H]1[C@@H]1OC(=O)c2c1ccc1c2OCO1)OCO3 [(-)-Bicuculline methbromide, 1(S), 9(R)]",normalised cell viability,[1],1.013 ± 0.0058
same,normalised cell viability,[2],1.02 ± 0.015
same,normalised cell viability,[3],1.01 ± 0.013
same,normalised cell viability,[4],1.01 ± 0.02
same,normalised cell viability,[5],0.9797 ± 0.0011
same,normalised cell viability,[6],0.9903 ± 0.0025
